{
  "source": "paper PMC4336329",
  "about": "(PLoS ONE, 2015)",
  "note": "Among all 310,000 compounds or so, about 2,200 (0.71%) showed an effect of 50% or more. The effect is printed as a negative number. The list shows a part of the results.",
  "data": [
    {"molecular_target": "human ether-à-go-go-related gene (hERG) potassium channel (human, UniProt Q12809)", "sequence (Q12809 whole entry, looked up)": "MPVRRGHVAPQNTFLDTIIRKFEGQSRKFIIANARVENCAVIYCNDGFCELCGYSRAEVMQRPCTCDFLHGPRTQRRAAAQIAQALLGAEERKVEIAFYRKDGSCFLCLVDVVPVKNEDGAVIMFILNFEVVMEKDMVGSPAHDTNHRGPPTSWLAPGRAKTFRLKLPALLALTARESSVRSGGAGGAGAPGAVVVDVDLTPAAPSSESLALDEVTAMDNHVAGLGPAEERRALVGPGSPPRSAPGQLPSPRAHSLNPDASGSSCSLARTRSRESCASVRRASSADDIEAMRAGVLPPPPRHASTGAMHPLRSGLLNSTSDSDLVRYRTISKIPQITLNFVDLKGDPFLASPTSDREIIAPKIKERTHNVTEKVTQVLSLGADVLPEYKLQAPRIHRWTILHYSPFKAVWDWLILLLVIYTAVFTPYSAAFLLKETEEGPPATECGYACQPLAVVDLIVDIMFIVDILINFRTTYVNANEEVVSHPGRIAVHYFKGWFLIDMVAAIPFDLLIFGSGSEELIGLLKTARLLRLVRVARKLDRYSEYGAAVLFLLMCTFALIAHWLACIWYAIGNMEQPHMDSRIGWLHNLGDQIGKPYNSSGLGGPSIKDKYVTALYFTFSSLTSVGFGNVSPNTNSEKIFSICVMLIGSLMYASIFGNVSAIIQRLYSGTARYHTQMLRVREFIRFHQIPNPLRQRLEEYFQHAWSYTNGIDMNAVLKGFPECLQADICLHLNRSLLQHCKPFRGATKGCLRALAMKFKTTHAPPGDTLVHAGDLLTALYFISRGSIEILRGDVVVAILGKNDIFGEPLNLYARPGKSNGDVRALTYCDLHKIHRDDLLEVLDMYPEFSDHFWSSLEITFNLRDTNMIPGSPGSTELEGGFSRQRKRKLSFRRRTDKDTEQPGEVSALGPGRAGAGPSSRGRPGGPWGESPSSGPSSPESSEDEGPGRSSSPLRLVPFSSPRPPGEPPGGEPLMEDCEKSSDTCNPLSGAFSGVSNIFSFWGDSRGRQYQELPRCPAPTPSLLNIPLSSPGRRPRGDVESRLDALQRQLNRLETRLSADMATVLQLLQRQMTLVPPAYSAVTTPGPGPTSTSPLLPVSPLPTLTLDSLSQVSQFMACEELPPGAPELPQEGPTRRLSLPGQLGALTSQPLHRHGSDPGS", "assay": "primary screen, population patch clamp on CHO cells stably expressing hERG", "units": {"hERG current change (%, negative = inhibition) at 1uM": "%"}, "values": [
      {"smiles": "CC(C)N(C(=O)CSc1nnc(NC(=O)Cc2cccs2)s1)C(C)C", "hERG current change (%, negative = inhibition) at 1uM": 10.9},
      {"smiles": "CCOC(=O)CC(NC(=O)Cc1cccs1)c1ccccc1Cl", "note": "(centres unmarked)", "hERG current change (%, negative = inhibition) at 1uM": 14.3},
      {"smiles": "CC1(C)C2CCC1(CS(=O)(=O)NCc1ccc(S(N)(=O)=O)cc1)C(=O)C2", "note": "(centres unmarked)", "hERG current change (%, negative = inhibition) at 1uM": 7.58},
      {"smiles": "CCC(c1nnnn1Cc1ccco1)N(CCc1ccccc1)Cc1cc2cc(C)ccc2[nH]c1=O", "note": "(centres unmarked)", "hERG current change (%, negative = inhibition) at 1uM": 10.5},
      {"smiles": "Cc1cccc(NC(=O)c2ccc(S(=O)(=O)NCc3cccnc3)cc2)c1", "hERG current change (%, negative = inhibition) at 1uM": 13.6},
      {"smiles": "Cc1ccnc(SCc2nc3ccccc3s2)n1", "hERG current change (%, negative = inhibition) at 1uM": 23},
      {"smiles": "COc1cccc(-n2c(CNC(=O)OC(C)(C)C)n[nH]c2=S)c1", "hERG current change (%, negative = inhibition) at 1uM": 8.54},
      {"smiles": "O=C(O)C1C2C=CC(C2)C1C(=O)NCc1ccccn1", "note": "(centres unmarked)", "hERG current change (%, negative = inhibition) at 1uM": 2.63},
      {"smiles": "CCS(=O)(=O)N1CCN(c2cnn(-c3ccccc3)c(=O)c2Cl)CC1", "hERG current change (%, negative = inhibition) at 1uM": -5.02},
      {"smiles": "Cc1cc(=O)oc2cc(NC(=O)C(C)Oc3ccc(F)cc3)ccc12", "note": "(centres unmarked)", "hERG current change (%, negative = inhibition) at 1uM": -8.54},
      {"smiles": "Cc1cc(C)c2c(=O)c3c(oc2c1)C(=O)N(CCO)C3c1cccc(O)c1", "note": "(centres unmarked)", "hERG current change (%, negative = inhibition) at 1uM": 13.8},
      {"smiles": "c1cncc(-c2nc3ccccn3c2Nc2ccc3c(c2)OCCO3)c1", "hERG current change (%, negative = inhibition) at 1uM": 4.02},
      {"smiles": "O=C(Nc1ccc(C(F)(F)F)cn1)Nc1cccs1", "hERG current change (%, negative = inhibition) at 1uM": 10.6},
      {"smiles": "S=C(NCCN1CCOCC1)NC1CCCCC1", "hERG current change (%, negative = inhibition) at 1uM": 19.6},
      {"smiles": "O=S(=O)(c1ccc(Cl)cc1)n1ccc2cccnc21", "hERG current change (%, negative = inhibition) at 1uM": 6.14},
      {"smiles": "COc1ccc(C2=NOC(C(=O)N3CCN(c4ccccc4OC)CC3)C2)cc1", "note": "(centres unmarked)", "hERG current change (%, negative = inhibition) at 1uM": 12.2},
      {"smiles": "CC1Oc2ccccc2N(CC(=O)Nc2ccc3c(c2)OCO3)C1=O", "note": "(centres unmarked)", "hERG current change (%, negative = inhibition) at 1uM": 9.94},
      {"smiles": "CC1CC(=O)Nc2ccccc2N1S(=O)(=O)c1ccc(C#N)cc1", "note": "(centres unmarked)", "hERG current change (%, negative = inhibition) at 1uM": 13.3},
      {"smiles": "CCOCCN(C(=O)c1ccccc1Cl)c1cccc(C)c1C", "hERG current change (%, negative = inhibition) at 1uM": 9.3},
      {"smiles": "O=C(CCCn1c(=S)[nH]c2cc3c(cc2c1=O)OCO3)NCCc1ccccc1Cl", "hERG current change (%, negative = inhibition) at 1uM": 4.66},
      {"smiles": "Cc1cccc(OCC(=O)NNC(=O)c2cc(S(=O)(=O)N(C)C)ccc2N2CCCC2)c1", "hERG current change (%, negative = inhibition) at 1uM": 0.379},
      {"smiles": "O=C(NCC(=O)N(CC1CCCO1)C(C(=O)NC1CCCCC1)c1ccc(F)cc1)c1ccco1", "note": "(centres unmarked)", "hERG current change (%, negative = inhibition) at 1uM": 10.5},
      {"smiles": "Cc1cccc2cc3c(NC(=O)CC(C)C)nn(C)c3nc12", "hERG current change (%, negative = inhibition) at 1uM": 12.2},
      {"smiles": "COc1ccc(N2CCN(Cc3nc(N)nc(Nc4ccc(C)c(Cl)c4)n3)CC2)cc1", "hERG current change (%, negative = inhibition) at 1uM": -15.1},
      {"smiles": "O=C(c1cnc2n(c1=O)CCS2)N1CCc2ccccc21", "hERG current change (%, negative = inhibition) at 1uM": 12.4},
      {"smiles": "Cc1nn(-c2ccccc2)nc1C(=O)Nc1nnc(C(F)(F)F)s1", "hERG current change (%, negative = inhibition) at 1uM": 14.6},
      {"smiles": "O=C(Nc1nonc1-c1ccc(Cl)cc1)c1ccco1", "hERG current change (%, negative = inhibition) at 1uM": 18.5},
      {"smiles": "CC(CCCC(C)(C)O)CC1C2=C(CCCC2=O)OC2=C1C(=O)CCC2", "note": "(centres unmarked)", "hERG current change (%, negative = inhibition) at 1uM": 0.929},
      {"smiles": "CN(C)c1ncc(CN2CCC(C(=O)Nc3ccc(-n4cccn4)cc3)CC2)s1", "hERG current change (%, negative = inhibition) at 1uM": 1.18},
      {"smiles": "O=C(O)c1ccccc1CSc1nc2ccccc2n1Cc1ccccc1C(=O)O", "hERG current change (%, negative = inhibition) at 1uM": 31.7},
      {"smiles": "CCOC(=O)Cc1csc(NC(=O)CN(C)S(=O)(=O)c2ccc3c(c2)CCC(=O)N3)n1", "hERG current change (%, negative = inhibition) at 1uM": 11},
      {"smiles": "Cc1ccc(NC(=O)CNCc2ccccc2Cl)cc1S(=O)(=O)N(C)C.O=C(O)C(=O)O", "hERG current change (%, negative = inhibition) at 1uM": 2.66},
      {"smiles": "Cc1cccc(CSCCNC(=O)CCSc2ccccc2)c1", "hERG current change (%, negative = inhibition) at 1uM": 13.3},
      {"smiles": "S=C(NNC(=S)NC1CC2C=CC1C2)NC1CC2C=CC1C2", "note": "(centres unmarked)", "hERG current change (%, negative = inhibition) at 1uM": 13.2},
      {"smiles": "Cc1cc(C)c(NC(=O)CNC(=O)c2ccccc2OCc2c(C)noc2C)c(C)c1", "hERG current change (%, negative = inhibition) at 1uM": -6.31},
      {"smiles": "Cc1ccc2cc(C3CC(c4ccco4)=NN3S(C)(=O)=O)c(Cl)nc2c1", "note": "(centres unmarked)", "hERG current change (%, negative = inhibition) at 1uM": 2.41},
      {"smiles": "CCNS(=O)(=O)c1ccc(CCC(=O)O)cc1", "hERG current change (%, negative = inhibition) at 1uM": 2.85},
      {"smiles": "CCOc1ccc(C(C)=O)cc1CSc1nc(C)cc(C)n1", "hERG current change (%, negative = inhibition) at 1uM": 0.705},
      {"smiles": "Cc1ncc([N+](=O)[O-])n1CCO", "hERG current change (%, negative = inhibition) at 1uM": 15.2},
      {"smiles": "Cc1ccc(C(=O)NC(=S)N2CCN(c3ccccc3F)CC2)cc1", "hERG current change (%, negative = inhibition) at 1uM": 1.36},
      {"smiles": "CC(/C=C/c1ccccc1)=N\\NC(=O)c1cc(C)nc2ccccc12", "hERG current change (%, negative = inhibition) at 1uM": 11.2},
      {"smiles": "COc1ccc(NC(=O)CN2CCN(C(=O)c3ccco3)CC2)c(OC)c1", "hERG current change (%, negative = inhibition) at 1uM": 1.5},
      {"smiles": "O=C(O)c1cc2cccc(S(=O)(=O)N3CCOCC3)c2cc1O", "hERG current change (%, negative = inhibition) at 1uM": 13.5},
      {"smiles": "O=C(Cc1ccc(NS(=O)(=O)c2ccc(F)cc2)cc1)NCc1ccccc1", "hERG current change (%, negative = inhibition) at 1uM": -3.1}
    ]}
  ]
}
